In PubChem BioAssay AID2546 (National Center for Advancing Translational Sciences (NCATS), 2010):
“And” between values parts separate entries of the source, which are not always exact repeats. Equal values may be shown once. In all, about 310,000 compounds went through this assay and about 11,000 (3.5%) were called active. This list was built around the results that the source calls inconclusive (neither active nor inactive); the mix of calls is not that of the screen. The call rests on the fitted dose curve; in most records, active means well fitted inhibition curve with a large enough effect; inconclusive means small, poorly fitted or top-dose-only effect, or effect the other way; inactive means flat fitted curve, though single readings scatter. No potency is given beside an inconclusive call; the fits are too rough.

assay: VP16 counterscreen qHTS for inhibitors of ROR gamma transcriptional activity; settings: Drosophila S2 Gal4-VP16 UAS-luciferase, luminescence, 20 h; series mostly up to 53.6 µM;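 further: Gal4-VP16 expression switched on by copper sulfate through the metallothionein promoter; nearly all actives have a fitted effect of over 50% in size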
Potency means the concentration at half of the fitted maximal effect; tags describe the fitted curve by direction and shape.

Compound	Potency
Cc1ccc(N2C(=O)CC(Sc3nccc(C)n3)C2=O)cc1 (stereo unspecified)	inconclusive [inhibitor, single point]
CC(OC(=O)CC1Sc2ccccc2NC1=O)C(=O)NC1CCCC1 (stereo unspecified)	inactive
COC(=O)c1cccc(NS(=O)(=O)c2ccc(NC(C)=O)cc2)c1C	inconclusive [inhibitor, single point]
Cc1cc(=O)oc2c3c4c(cc12)OCCN4CCC3	inconclusive [inhibitor, single point]
CC(C)N1CCc2c(sc(NC(=O)c3ccc(S(=O)(=O)N4CCc5ccccc54)cc3)c2C(N)=O)C1	inconclusive [inhibitor, single point]
O=C(c1cccc(F)c1)N1CCC[C@@]2(CCN(c3ccncc3)C2)C1	inactive
COc1ccc(NC(=O)CC2C(=O)N(c3ccc(F)cc3)C(=S)N2NC(=O)c2ccc(Cl)cc2)cc1 (stereo unspecified)	active: 20 µM
CC(=O)c1c(C)[nH]c(C(=O)OCC(=O)Nc2sc3c(c2C#N)CCCC3)c1C	inconclusive [inhibitor, single point]
Cc1cc(C)cc(N=C2NC(=O)/C(=C/c3cccs3)S2)c1	active: 15.8 µM
COc1ccc(C)cc1-n1nnnc1SCc1cn2ccsc2n1	inactive
Cc1ccc2c(CN3CCCCC3)cc(=O)oc2c1C	inactive
O=C1CCCc2cc(S(=O)(=O)N3CCC(C(=O)NCc4ccccc4)CC3)ccc2N1	inactive
Cc1ccc(/C=N/N=C2/NC(=O)CS2)o1	inconclusive [inhibitor, partial curve, poor fit]
Cc1ccc(/C=C/C(=O)N2CCN(S(=O)(=O)c3ccc(C)c(C)c3)CC2)o1	inconclusive [inhibitor, single point]
Cc1ccc(SCc2noc(C(=O)NC(C)C)c2C(=O)O)cc1C	inconclusive [inhibitor, single point]
Cc1cc(C)c(OCC(=O)Nc2ccc(S(=O)(=O)N3CCOCC3)cc2)c(C)c1	inconclusive [inhibitor, single point]
CCCCN(CC)C(=O)c1cc2cc3ccc(OC)cc3nc2o1	inactive
Cc1ccc(C)c(C(=O)COC(=O)c2cccc(N3C(=O)c4c(C)nc5ccccc5c4C3=O)c2)c1	inconclusive [inhibitor, single point]
Cn1c(/C=C/c2ccc([N+](=O)[O-])o2)nc2ccccc2c1=O	active: 6.31 µM
CC1CCC(C(C)C)C(OC(=O)C[n+]2cccc(C(N)=O)c2)C1 (stereo unspecified)	inactive
COc1ccc(CNCCC(c2ccccc2)c2ccc3c(c2)OCO3)cc1 (stereo unspecified)	inconclusive [inhibitor, single point]
COc1ccccc1NC1=C(C)C(=O)CC1	inactive
C=CCc1c(C)nc(C)nc1N/N=C/c1ccc(F)cc1	inconclusive [inhibitor, single point]
CC(=O)NC12CC3CC(C1)CC(C(=O)Nc1c(C)n(C)n(-c4ccccc4)c1=O)(C3)C2	inconclusive [inhibitor, single point]
O=C(COC(=O)C1CC(=O)N(Cc2ccco2)C1)c1ccc(OC(=O)c2ccco2)cc1 (stereo unspecified)	inconclusive [inhibitor, single point]
Cc1ccccc1N=C1NN=C(c2ccccc2F)CS1	inconclusive [inhibitor, single point]

Compound	Potency
Cc1cc2oc(C(=O)Nc3c(C)n(C)n(-c4ccccc4)c3=O)c(C)c2cc1C	inconclusive [activator, full curve, poor fit]
Cc1noc(C)c1COC(=O)c1cccc(S(=O)(=O)N2c3ccccc3CC2C)c1 (stereo unspecified)	inactive
CC(NC(=O)Nc1ccc(F)cc1)c1ccc2c(c1)OCO2 (stereo unspecified)	inconclusive [activator, partial curve, poor fit]
NC(=O)c1cccn1Cc1cccc(Cl)c1	inconclusive [inhibitor, partial curve]
CCC(CC)c1nnc(NC(=O)CCNC(=O)c2ccccc2Cl)s1	inactive
O=C(COC(=O)c1cccc(Cl)c1)Nc1cc(Cl)ccc1Oc1ccccc1	inconclusive [inhibitor, single point]
O=C(NCCOc1ccccc1F)c1cc(F)c(F)cc1Cl	inconclusive [inhibitor, partial curve]
CC1(C)OC2C(CO)OC(n3cnc4c(=O)[nH]c(N)nc43)C2O1 (stereo unspecified)	inactive
O=C(CCCOc1ccccc1)Nc1ccc(Cl)cn1	inactive
Cc1ccc(C)c(NC(=S)NC2CC3CCCC(C2)N3CC(C)C)c1 (stereo unspecified)	inconclusive [inhibitor, single point]
COC(=O)c1c(C)[nH]c(C(=O)/C=C/c2ccccc2)c1C	active: 7.08 µM
CCC(=O)NC(=S)Nc1ccc(NC(=O)COc2ccc(Cl)c(C)c2)cc1	inactive
CC(C)NC(=O)N1CC2(CCN(S(=O)(=O)c3ccccc3)CC2)C1	inactive
Cc1cc(=O)oc2c1c(C)nn2-c1ccc(C(=O)OC(C)C)cc1	inactive
Cc1ccc(OCC(=O)N2N=C(c3cccnc3)CC2(O)C(F)(F)F)cc1C (stereo unspecified)	inconclusive [inhibitor, single point]
O=[N+]([O-])c1ccc(/C=C/c2ccc3ccccc3n2)cc1	inconclusive [inhibitor, partial curve]
Cc1ccc(SCCC(=O)Nc2ccc(OCc3ccccc3)cc2)cc1	inconclusive [inhibitor, single point]
O=C(C[n+]1ccc2ccccc2c1)c1cccc2ccccc12	inactive
O=C1NC(=S)N(c2cccc(Cl)c2)C12CCCCC2	inconclusive [inhibitor, single point]
Cc1ccccc1OCC(=O)N(Cc1ccc(N(C)C)cc1)C1CCS(=O)(=O)C1 (stereo unspecified)	inactive
COc1cccc(CNS(=O)(=O)c2ccc3c(c2)CCN3C(=O)C2CC2)c1	inactive
Fc1ccccc1CNC(=S)NCc1ccc(Cl)cc1	inconclusive [inhibitor, single point]
Oc1ccc(Br)cc1-c1cc(-c2ccco2)[nH]n1	active: 15.8 µM
CCN(c1ccccc1)S(=O)(=O)c1ccc(C(=O)N(CCCN(C)C)c2nc3cc4c(cc3s2)OCO4)cc1	inconclusive [inhibitor, single point]
O=C(CCS(=O)(=O)c1ccccc1)Nc1ncc([N+](=O)[O-])s1	inconclusive [inhibitor, single point]
CCOC(=O)N/N=C\c1ccc(C)s1	inconclusive [inhibitor, single point]

Compound	Potency
Cc1cccc(Nc2ncc3c(n2)CC(C)CC3=O)c1 (stereo unspecified)	inconclusive [inhibitor, single point]
CCCCCOC(=O)C1=C(C)Nc2nnnn2C1c1ccccc1Cl (stereo unspecified)	inconclusive [inhibitor, single point]
Cc1cc(C)c(-c2c(O)c3c(n(C)c2=O)CC(C)(C)CC3=O)c(C)c1	inactive
CC(=O)NCCC(=O)N(Cc1ccccc1)c1nc2c(C)cccc2s1	inactive
c1ccc(COCc2ccccc2)cc1	inactive
Cc1ccc(C(=O)c2cc([N+](=O)[O-])ccc2N2CCCCC2)cc1	inconclusive [inhibitor, single point]
Cc1ccc2c(c1)c1c3n2CCN(C(=O)CCl)C3CCC1 (stereo unspecified)	active: 11.2 µM
Cc1cccc(NC(c2ccc(O)cc2)c2ccc3ccc(C)nc3c2O)n1 (stereo unspecified)	inactive
Oc1c(Cl)cc(Cl)c(Cl)c1Cc1c(O)c(Cl)cc(Cl)c1Cl	active: 3.16 µM and active: 7.08 µM and active: 3.98 µM
COCC(=O)OC/C(O)=C(\C#N)c1nc2ccccc2[nH]1	active: 2.82 µM
O=C(NCc1ccc(F)cc1)c1c2c(nc3ccccc13)CCN(Cc1ccccc1)C2	inactive
CC(C)CNc1nc(=S)nc(N(C)C)[nH]1	active: 4.47 µM
O=C(COc1cc([N+](=O)[O-])cc2cccnc12)NCCC1=CCCCC1	inconclusive [inhibitor, single point]
CCOC(=O)c1c(NC(=O)C2COc3ccccc3O2)sc2c1CC(C)(C)NC2(C)C (stereo unspecified)	inconclusive [inhibitor, single point]
Cn1c(=O)[nH]c(=O)c2c1nc(N1CCN(CCO)CC1)n2Cc1ccccc1	inactive
CCC(CC)c1nnc(NC(=O)C2CC(=O)N(c3ccc4c(c3)OCCO4)C2)s1 (stereo unspecified)	inconclusive [inhibitor, single point]
COc1ccc(-c2sc(Nc3ccccc3)n[n+]2C)c(C)c1C	inactive
N#C/C(=C\c1cccc([N+](=O)[O-])c1)C(=O)NCc1ccc(Cl)cc1	active: 17.8 µM
Cc1nc2cc(C(=O)OCC(=O)NC(C)C(C)C)ccc2n1-c1ccccc1 (stereo unspecified)	active: 28.2 µM
COc1cc(OC)c(OC)cc1/C=N/NC(=S)NCCN1CCOCC1	active: 7.08 µM
COc1ccc2nc3c(c([Si](C)(C)C(C)(C)C)c2c1)Cn1c-3cccc1=O	active: 11.2 µM
O=C(c1cnn(C(=O)c2ccc(O)cc2)c1)c1ccccc1O	inconclusive [inhibitor, partial curve]
O=[N+]([O-])c1ccc(N2CCN(C(=S)Nc3cccc(F)c3)CC2)cc1	inconclusive [inhibitor, single point]
O=C(NCCc1ccc2c(c1)OCCO2)c1ccc(F)cc1	inactive
